# Measured values from patent US10858425B2, “Pan-ELR+ CXC chemokine antibodies” (Eli Lilly and Company, priority 2013, dated 2020).
# T1: human CXCL6 (GCP-2) (Homo sapiens, UniProt P80162)
# T1 sequence (P80162 40-114 limits assumed): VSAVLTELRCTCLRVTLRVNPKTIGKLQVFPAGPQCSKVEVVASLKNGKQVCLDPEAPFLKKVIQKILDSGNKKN
# T2: mouse CXCL5 (LIX) (Mus musculus, UniProt P50228)
# T2 sequence (P50228 41-132): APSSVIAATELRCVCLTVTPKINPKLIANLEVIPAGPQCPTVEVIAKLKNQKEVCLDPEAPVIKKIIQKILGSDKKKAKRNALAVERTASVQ
# T3: human CXCL1 (Homo sapiens, UniProt P09341)
# T3 sequence (P09341 35-107): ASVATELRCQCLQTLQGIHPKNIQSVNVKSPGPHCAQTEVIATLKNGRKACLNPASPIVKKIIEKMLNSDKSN
# T4: human CXCL2 (Homo sapiens, UniProt P19875)
# T4 sequence (P19875 35-107): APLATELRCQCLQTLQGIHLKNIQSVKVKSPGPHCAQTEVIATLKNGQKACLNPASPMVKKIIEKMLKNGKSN
# T5: human CXCL3 (Gro gamma) (Homo sapiens, UniProt P19876)
# T5 sequence (P19876 35-107): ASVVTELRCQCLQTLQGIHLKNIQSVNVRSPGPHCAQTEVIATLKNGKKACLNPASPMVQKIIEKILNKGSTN
# Key:
# human CXCL6 (GCP-2) = target: T1, human CXCL6 (GCP-2); test: Biacore surface plasmon resonance binding to human CXCL6; conditions: 25° C.
# Description: (§1) Biacore 2000 instrument and Biacore 2000 Evaluation Software Version 4.1 are used for surface plasmon resonance analysis. A […] chip is prepared using manufacturer's EDC/NHS amine coupling method. Briefly, the surfaces of all four flow cells are activated by injecting a 1:1 mixture of EDC/NHS for 7 minutes at 10 μL/min. Protein A is diluted to 100 μg/mL in 10 mM acetate, pH 4.5 buffer, and immobilized to achieve approximately 10,000 RU onto all 4 flow cells by 7-minute injection at a flow rate of 10 μL/minute. Unreacted sites are blocked with a 7-minute injection of ethanolamine at 10 μL/minute. Two injections of glycine (pH 1.5) for 30 seconds at 10 μL/minute are used to remove any non-covalently associated protein. Running buffer is HBS-EP+.
# (§2) Antibody 1 or Antibody 2 is diluted to 2 μg/mL in running buffer, and approximately 400-600 RU is captured in flow cell (Fc). Ligands are diluted from 100 μg/mL to 50 nM in running buffer and then two-fold serially diluted in running buffer to 3.125 nM. Duplicate injections of each ligand concentration are injected at 100 μL/min for 150 seconds followed by a dissociation phase. […] The on-rate (kon) and off-rate (koff) for each ligand are evaluated using a “1:1 (mass transfer) Binding” binding model. The affinity […] is calculated from the binding kinetics according to the relationship: KD=koff/kon.
# mouse CXCL5 (LIX) = target: T2, mouse CXCL5 (LIX); test: Neutralization of mouse CXCL5 (LIX)
# human CXCL1 = target: T3, human CXCL1; test: FLIPR neutralization using HMEC cells expressing human CXCR2, CXCL1; assay type: cell-based; conditions: CXCL1 10 nM; HMEC-huCXCR2 FLIPR
# Description: (§3) Since all of the ELR+ CXC chemokines can bind CXCR2 receptor, cells expressing CXCR2 were selected for in vitro studies. HMEC-huCXCR2 is an immortalized human endothelial cell line transduced with retrovirus for expression of human CXCR2 receptor. HMEC cells expressing human CXCR2 are able to induce intracellular Ca^2+ influx in response to human, cynomolgus monkey, rat, and mouse ELR+CXC chemokines. Intracellular Ca^2+ influx can be detected by a Fluorescent Imagine £late Reader (FLIPR). Chemokine neutralization should therefore also neutralize intracellular Ca^2+ influx induced by these chemokines.
# (§4) HMEC-huCXCR2 is maintained in MCDB 31 medium supplemented with 10% fetal bovine serum, 2× GlutaMax, 1× non-essential amino acids, 1 μg/mL hydrocortisone, 10 ng/mL human Epidermal Growth Factor, and 0.4 μg/mL puromycin at 37° C. in 5% CO2. […] A cell plate and a ligand-antibody plate are loaded into a Fluorescent Imagine Plate Reader (FLIPR-3, Molecular Devices) programmed to transfer 50 μL of ligand-antibody to wells of the cell plate. Fluorescence is recorded every second for 90 seconds. The change in fluorescence (DRFU) is calculated from images 10 to 90. DRFU versus log (antibody concentration) is plotted and IC50 values are determined by nonlinear regression using Graph Pad Prism. […] Data are expressed as the mean of replicates. […]
# human CXCL2 = target: T4, human CXCL2; test: FLIPR neutralization using HMEC cells expressing human CXCR2, CXCL2; assay type: cell-based; conditions: CXCL2 10 nM; HMEC-huCXCR2 FLIPR
# Description: as §3, §4
# human CXCL3 (Gro gamma) = target: T5, human CXCL3 (Gro gamma); test: Biacore surface plasmon resonance binding to human CXCL3; conditions: 25° C.
# Description: as §1, §2
molecule,measurement,setting,value
"Antibody 1: antibody with heavy chain SEQ ID NO: 1 and light chain SEQ ID NO: 3, expressed in NSO cells (antibody) heavy: QVQLVQSGAEVKKPGASVKVSCKASGYEFTSYWIHWVRQAPGQGLEWMGNISPNSGSANYNEKFKSRVTMTRDTSTSTVYMELSSLRSEDTAVYYCAREGPYSYYPSREYYGSDLWGQGTLVTVSSASTKGPSVFPLAPCSRSTSESTAALGCLVKDYFPEPVTVSWNSGALTSGVHTFPAVLQSSGLYSLSSVVTVPSSSLGTKTYTCNVDHKPSNTKVDKRV[human IgG4 Fc with S228P (EU numbers) not spelt out] light: EIVLTQSPATLSLSPGERATLSCRASQSISNNLHWYQQKPGQAPRLLIYYTSRSVSGIPARFSGSGSGTDFTLTISSLEPEDFAVYYCGQNNEWPEVFGGGTKVEIKRTVAAPSVFIFPPSDEQLKSGTASVVCLLNNFYPREAKVQWKVDNALQSGNSQESVTEQDSKDSTYSLSSTLTLSKADYEKHKVYACEVTHQGLSSPVTKSFNRGEC",kon,human CXCL6 (GCP-2),7.07 ± 0.11 (1/Ms) × 10^5
same,neutralization of mouse CXCL5 (LIX),mouse CXCL5 (LIX),does not neutralize
same,IC50,human CXCL1,0.867 (±0.153) ug/mL
same,IC50,human CXCL2,1.281 (±0.449) ug/mL
same,kon,human CXCL3 (Gro gamma),7.16 ± 0.08 (1/Ms) × 10^5
